Test results from the supplement of paper PMC12217912.
The list shows a part of the results. Sequences were assembled here from the parent chain. Inactive controls read about 0.05.

B1: TEV protease; numbered along this chain (parent)
chain: MGESLFKGPRDYNPISSSICHLTNESDGHTTSLYGIGFGPFIITNKHLFRRNNGTLVVQSLHGVFKVKDTTTLQQHLVDGRDMIIIRMPKDFPPFPQKLKFREPQREERICLVTTNFQTKSMSSMVSDTSCTFPSGDGIFWKHWIQTKDGQCGSPLVSTRDGFIVGIHSASNFTNTNNYFTSVPKNFMELLTNQEAQQWVSGWRLNADSVLWGGHKVFMVKPEEPFQPVKEATQL

Variants of: B1
Experiment: raw area under fraction-flipped curve 0-4 h after induction (AUC4h, not background-subtracted), DNA-recorder readout of cleavage of the substrate (dimensionless); higher = more cleavage of the substrate by the protease variant
Conditions: temperature: 34 °C; time window: 0-4 h after rhamnose induction
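Further: Bxb1 expression induced with 0.2% (w/v) L-rhamnose at OD600 near 0.5, cultures sampled hourly, flipped fraction per protease–substrate barcode pair counted by paired-end Illumina sequencing.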

N13W
area with substrate ENLYCQS: 0.0594 | area with substrate ENLYDQS: 0.0569 | area with substrate ENLYEQS: 0.063 | area with substrate ENLYGQS: 0.0717 | area with substrate ENLYHQS: 0.0723 | area with substrate ENLYIQS: 0.0987 | area with substrate ENLYKQS: 0.0615 | area with substrate ENLYMQS: 0.0728 | area with substrate ENLYNQS: 0.0656 | area with substrate ENLYPQS: 0.0688 | area with substrate ENLYQQS: 0.063 | area with substrate ENLYRQS: 0.0686 | area with substrate ENLYVQS: 0.114 | area with substrate ENLYWQS: 0.069 | area with substrate ENLYYQS: 0.0208

S32M
area with substrate ENLYCQS: 0.112 | area with substrate ENLYDQS: 0.0734 | area with substrate ENLYEQS: 0.0689 | area with substrate ENLYGQS: 0.0621 | area with substrate ENLYHQS: 0.0698 | area with substrate ENLYKQS: 0.0277 | area with substrate ENLYMQS: 0.0912 | area with substrate ENLYPQS: 0.0702 | area with substrate ENLYQQS: 0.0818 | area with substrate ENLYRQS: 0.0516 | area with substrate ENLYSQS: 0.0774 | area with substrate ENLYWQS: 0.0765 | area with substrate ENLYYQS: 0.0638

V64Q
area with substrate ENLYCQS: 0.0561 | area with substrate ENLYDQS: 0.0705 | area with substrate ENLYEQS: 0.0717 | area with substrate ENLYGQS: 0.0567 | area with substrate ENLYHQS: 0.0741 | area with substrate ENLYIQS: 0.109 | area with substrate ENLYMQS: 0.0915 | area with substrate ENLYNQS: 0.0747 | area with substrate ENLYPQS: 0.0508 | area with substrate ENLYQQS: 0.0644 | area with substrate ENLYRQS: 0.0498 | area with substrate ENLYSQS: 0.0707 | area with substrate ENLYTQS: 0.0817 | area with substrate ENLYWQS: 0.0695

D208E
area with substrate ENLYCQS: 0.139 | area with substrate ENLYDQS: 0.0626 | area with substrate ENLYEQS: 0.0659 | area with substrate ENLYHQS: 0.0682 | area with substrate ENLYKQS: 0.0473 | area with substrate ENLYMQS: 0.0831 | area with substrate ENLYNQS: 0.106 | area with substrate ENLYPQS: 0.0591 | area with substrate ENLYQQS: 0.062 | area with substrate ENLYRQS: 0.061 | area with substrate ENLYWQS: 0.0826

G136Q
area with substrate ENLYCQS: 0.1 | area with substrate ENLYDQS: 0.0606 | area with substrate ENLYGQS: 0.0512 | area with substrate ENLYHQS: 0.0745 | area with substrate ENLYIQS: 0.135 | area with substrate ENLYKQS: 0.0616 | area with substrate ENLYLQS: 0.0812 | area with substrate ENLYNQS: 0.0628 | area with substrate ENLYPQS: 0.0749 | area with substrate ENLYQQS: 0.0701 | area with substrate ENLYRQS: 0.0629 | area with substrate ENLYSQS: 0.0821 | area with substrate ENLYVQS: 0.167 | area with substrate ENLYWQS: 0.0836 | area with substrate ENLYYQS: 0.0414

S16V
area with substrate ENLYCQS: 0.0928 | area with substrate ENLYGQS: 0.0755 | area with substrate ENLYHQS: 0.0673 | area with substrate ENLYIQS: 0.151 | area with substrate ENLYKQS: 0.0268 | area with substrate ENLYLQS: 0.0691 | area with substrate ENLYNQS: 0.0755 | area with substrate ENLYPQS: 0.091 | area with substrate ENLYQQS: 0.0674 | area with substrate ENLYRQS: 0.0692 | area with substrate ENLYTQS: 0.082 | area with substrate ENLYVQS: 0.115 | area with substrate ENLYWQS: 0.147

S32Q
area with substrate ENLYCQS: 0.0751 | area with substrate ENLYDQS: 0.0737 | area with substrate ENLYEQS: 0.0512 | area with substrate ENLYHQS: 0.08 | area with substrate ENLYIQS: 0.105 | area with substrate ENLYKQS: 0.0817 | area with substrate ENLYMQS: 0.0687 | area with substrate ENLYNQS: 0.0724 | area with substrate ENLYPQS: 0.09 | area with substrate ENLYQQS: 0.0591 | area with substrate ENLYRQS: 0.065 | area with substrate ENLYSQS: 0.0957 | area with substrate ENLYTQS: 0.077 | area with substrate ENLYVQS: 0.0057 | area with substrate ENLYWQS: 0.0697 | area with substrate ENLYYQS: 0.0394

D128F
area with substrate ENLYCQS: 0.127 | area with substrate ENLYEQS: 0.0726 | area with substrate ENLYGQS: 0.068 | area with substrate ENLYHQS: 0.0749 | area with substrate ENLYIQS: 0.136 | area with substrate ENLYKQS: 0.0659 | area with substrate ENLYLQS: 0.103 | area with substrate ENLYPQS: 0.118 | area with substrate ENLYWQS: 0.107 | area with substrate ENLYYQS: 0.0438

S17W
area with substrate ENLYCQS: 0.0818 | area with substrate ENLYDQS: 0.0606 | area with substrate ENLYEQS: 0.0868 | area with substrate ENLYGQS: 0.0649 | area with substrate ENLYHQS: 0.0683 | area with substrate ENLYIQS: 0.129 | area with substrate ENLYKQS: 0.0371 | area with substrate ENLYLQS: 0.0764 | area with substrate ENLYMQS: 0.104 | area with substrate ENLYNQS: 0.063 | area with substrate ENLYQQS: 0.0631 | area with substrate ENLYRQS: 0.0605 | area with substrate ENLYSQS: 0.0986 | area with substrate ENLYTQS: 0.0758

L48I
area with substrate ENLYCQS: 0.0823 | area with substrate ENLYEQS: 0.0717 | area with substrate ENLYGQS: 0.0629 | area with substrate ENLYHQS: 0.066 | area with substrate ENLYIQS: 0.088 | area with substrate ENLYKQS: 0.0515 | area with substrate ENLYMQS: 0.0665 | area with substrate ENLYNQS: 0.0444 | area with substrate ENLYPQS: 0.064 | area with substrate ENLYQQS: 0.0501 | area with substrate ENLYVQS: 0.103 | area with substrate ENLYYQS: 0.0541

L112I
area with substrate ENLYCQS: 0.0716 | area with substrate ENLYDQS: 0.0687 | area with substrate ENLYEQS: 0.0518 | area with substrate ENLYGQS: 0.0987 | area with substrate ENLYHQS: 0.0706 | area with substrate ENLYNQS: 0.0669 | area with substrate ENLYPQS: 0.0546 | area with substrate ENLYRQS: 0.0511 | area with substrate ENLYSQS: 0.0659 | area with substrate ENLYVQS: 0.0697 | area with substrate ENLYWQS: 0.0657

V200W
area with substrate ENLYDQS: 0.0504 | area with substrate ENLYHQS: 0.0602 | area with substrate ENLYIQS: 0.0575 | area with substrate ENLYMQS: 0.0534 | area with substrate ENLYNQS: 0.0807 | area with substrate ENLYRQS: 0.0629 | area with substrate ENLYSQS: 0.0866

L48C
area with substrate ENLYDQS: 0.0599 | area with substrate ENLYEQS: 0.0662 | area with substrate ENLYGQS: 0.0708 | area with substrate ENLYHQS: 0.0626 | area with substrate ENLYKQS: 0.0575 | area with substrate ENLYLQS: 0.0638 | area with substrate ENLYMQS: 0.0661 | area with substrate ENLYNQS: 0.0701 | area with substrate ENLYPQS: 0.0629 | area with substrate ENLYQQS: 0.0654 | area with substrate ENLYTQS: 0.07 | area with substrate ENLYVQS: 0.0886

T44F
area with substrate ENLYDQS: 0.0569 | area with substrate ENLYEQS: 0.0519 | area with substrate ENLYGQS: 0.051 | area with substrate ENLYHQS: 0.0278 | area with substrate ENLYIQS: 0.0458 | area with substrate ENLYKQS: 0.0246 | area with substrate ENLYMQS: 0.0436 | area with substrate ENLYNQS: 0.0603 | area with substrate ENLYPQS: 0.0396 | area with substrate ENLYQQS: 0.076 | area with substrate ENLYVQS: 0.0512
